# Experimental data taken from ChEMBL document CHEMBL4888484, “Replenishing the malaria drug discovery pipeline: Screening and hit evaluation of the MMV Hit Generation Library 1 (HGL1) against asexual blood stage Plasmodium falciparum ,using a nano luciferase reporter read-out” (2022).
# Among all 150,000 compounds or so, about 540 (0.36%) showed an effect of 50% or more. The list shows a part of the results.
# Tested on: Plasmodium falciparum
# Assay: Primary screen in NF54 nanoGlo assay, in single point, at 2uM, 72h; a lower Z score goes with more inhibition
# Format: functional, Erythrocyte
# Conditions: timepoint 72 hour
Structure (SMILES),% Inhibition [%],Z score
C1CCC2(CC1)[C@@H](OCC1CC1)CN2C1CCNCC1,17,-2.69
CCCCNC(=O)CN(C)Cc1[nH]cc(C)c(=O)c1C,-12,2.01
O=C1CCN(C(=O)c2cccs2)CCCCCCN1,-9,1.24
NC(=O)c1ccc(CNC2CCCCCCC2)o1,-8,1.34
CCN(Cc1nc2c(cnn2C)c(=O)[nH]1)C1CCCC1,-4,0.44
N#Cc1ccc(C(=O)N2CC[C@@H](CO)[C@@H](O)C2)cn1,14,-1.56
CC[C@H](C)[C@H](NC(=O)NCc1ccccc1)c1nc2ccccc2[nH]1,7,-0.97
CCOC(=O)c1cc(C(C)(C)C)n(C2CCN(S(=O)(=O)c3ccccc3C#N)CC2)n1,-15,2.51
CN(C)C(=O)Cn1cc(-c2nc(-c3ccco3)no2)nn1,-5,0.76
Cc1ccc(CN(C(=O)c2cn3cccnc3n2)C2CCCC2)s1,-13,1.69
CC(C)(C)Nc1nc(-c2nnc(-c3cccc(Cl)c3)o2)nc2ccccc12,1,-0.24
CN1CC[C@@H]2CN(C(=O)Nc3nc(-c4ccccc4C(F)(F)F)ns3)C[C@@H]21,1,-0.17
CC(C)N1CCN(c2ccc(-c3ccncc3)cn2)CC1,10,-1.28
CCCN(Cc1cc(NC(=O)N(C)C)ccc1N(C)C)C(=O)C(CC)CC,-7,1.27
CC1Oc2ccccc2C1NC(=O)N1CCC(n2cccn2)C1 (stereo not given),5,-0.5
CC[C@H](O)C(=O)NCCOc1ccccc1Cl,10,-0.96
O=C1CN(C[C@@H]2CCCN3CCCC[C@H]23)CCN1CCc1ccccc1,12,-1.55
Cc1ccc(C(=O)Nc2ccc3c(c2)OCCCO3)o1,0,-0.03
COc1ccc([C@H](C)n2c(C)c3c(C)nn4cc(-c5cc(Cl)ccc5Cl)cc4c3c2C)cc1,31,-3.57
COCc1cc(CNc2ncc(Br)cc2CO)no1,-7,0.72
O=C(COc1cccc(Cl)c1)N1CCCN(c2ccc3nncn3n2)CC1,-3,0.34
COC(=O)N(Cc1noc(-c2cccc3nn[nH]c23)n1)C1CC1,-11,1.15

Structure (SMILES),% Inhibition [%],Z score
O=C(C[C@H]1COCCN1C(=O)Cc1cccnc1)N1CCCCCCC1,-6,1.15
Cc1ccc(N2CCC(NC3(C(=O)O)CCCC3)CC2)cc1Cl,-11,2.09
CC1=C[C@@H](CN2CCC(C(N)=O)CC2)[C@H](C(C)C)C[C@H]1Cc1nnc(-c2ccc(N(C)C)cc2)o1,-8,1.06
Cn1c(=O)[nH]cc(C(=O)NCc2ccc(F)cc2)c1=O,-6,1.13
CCn1c(C)cc(C(=O)N2C[C@@H]3CC[C@H]2CN(c2cnccn2)C3)c1C,-4,0.66
CC1(C)CN(C(=O)c2ccccc2-n2ccnn2)CC[C@@H]1O,-6,0.59
CCOCC(=O)NCCc1cn(C)c2cc(C)ccc12,-12,1.29
CCn1cc(S(=O)(=O)Nc2ncc(C(C)C)s2)cn1,-4,0.42
Cc1ncccc1C(=O)N1CC(n2cc(COCc3ccccc3)nn2)C1,0,0.04
CC(CCc1ccccc1)N1C(=O)c2ccccc2C1O (stereo not given),0,0.04
COCCC1(C)CN(C(=O)c2nc3cnccc3s2)C1,4,-0.7
COc1ccc(-n2nnc3c(=O)n(CC(=O)NCCc4ccccc4)cnc32)cc1OC,-11,2.14
COc1nc(NC(=O)C2CC2c2ccc(F)c(F)c2)n[nH]1 (stereo not given),-12,1.14
Cc1ncc(C(=O)N[C@H](CO)[C@@H](C)O)c(C2CC2)n1,0,-0.01
Cn1nc([C@@H]2CCCN2C(=O)CC2CCCCC2)n(Cc2ccccc2)c1=O,-18,2.46
O[C@@H](CN1CCC(c2ccn[nH]2)CC1)C(F)(F)F,27,-3.09
Cc1cnc(C(=O)Nc2ccccc2NCCc2ccccn2)cn1,-13,1.7
Cc1cc(C)cc(CN2CCN(C(=O)[C@@H](O)Cc3ccccc3)CC2=O)c1,-5,0.83
O=C(Nc1nccs1)c1csc2c1CC[C@H](c1ccccc1)C2,-2,0.25
O=C(CCc1nc(-c2ccsc2)no1)N[C@H]1CCCCNC1=O,-6,1.17
Cn1cc(CCCNc2ccc(Cl)c(C#N)n2)cn1,-3,0.41
CCc1c(NC(=O)N2CCCCCC2)cnn1-c1cccc(C)c1,-13,1.28

Structure (SMILES),% Inhibition [%],Z score
C[C@@H]1CC[C@H](C)N1C(=O)CC[C@@H]1NC(=O)NC1=O,-1,0.1
C[C@@H]1CN(C(=O)c2ccc(-c3nn(C)c4ccccc34)cc2)C[C@H](C)O1,-4,0.49
O=C(Nc1nc(-c2ccc(F)c(Cl)c2)cs1)C1CCN(C2CC2)CC1,-7,0.95
C=CCc1cc(CNCCN2CCC[C@H](CO)C2)ccc1OC,-4,0.64
COc1ccccc1CN(C)c1nc2ccccc2s1,3,-0.26
CC(=O)N1CC[C@](C)(C(=O)Nc2cn(C)nc2C)C1,9,-1.55
O=C(c1ccnnc1)N1CC[C@@](O)(c2ccccc2)[C@H]2CCCC[C@@H]21,-4,0.35
NC(=NCCOc1ncc(Cl)cc1Cl)N1CCOCC1,-11,1.79
CN1CC[C@@]2(CCCN(c3nc4ccccc4s3)C2)C1,-5,0.97
CC(=O)OCC(OC(C)=O)C(OC(C)=O)C(OC(C)=O)C(=O)Nc1ccccc1 (stereo not given),-16,3.07
CC(C)[C@@H](CO)NC(=O)c1ccc(F)cc1O,10,-1.4
Cc1c(C(=O)N2CC[C@H](CC(C)(C)C)C2(C)C)nnn1-c1cnn(C)c1,36,-4.89
CCO[C@H]1C[C@@H](NC(=O)c2cc(C)n(C(F)F)n2)C1,-8,0.93
O=C(CNC(=O)c1cccs1)Nc1n[nH]c2c(Cl)cccc12,-2,0.17
CC(=O)Nc1nc(CN(C)CCOc2ccccc2Cl)cs1,6,-1.06
C[C@H](O)CN(Cc1c(-c2ccccc2)nn(C)c1Oc1ccccc1Cl)CC1CC1,-2,0.33
CN(CC(=O)NC(c1ccccc1)c1ccccc1)S(=O)(=O)c1ccc2c(c1)c(=O)n(C)c(=O)n2C,-10,1.21
CCN1CCN(c2nc3ncn(CC(=O)NCCc4ccc(Cl)cc4)c(=O)c3s2)CC1,49,-1.76
COc1nc(OC)nc(-c2ccc(C(N)=O)cc2)n1,-15,2.03
Cn1cccc(C(=O)N2C3CCC2CC(n2ccnc2)C3)c1=O (stereo not given),-14,1.74
Cn1cc(C(=O)N2C3C=CCC2CC3)nn1 (stereo not given),-1,0.15
COc1ccc(-c2ccccc2-c2nnc(C)s2)c(OC)c1OC,-3,0.48

Structure (SMILES),% Inhibition [%],Z score
O=C(NCC1CCC2(CCCCC2)O1)N1CCOC(C2CCC2)C1 (stereo not given),3,-0.47
Cc1ccc(NS(=O)(=O)c2c(C)c(C)cc3c(C)c(C(=O)N4CCOCC4)oc23)cc1,5,-0.63
CNS(=O)(=O)c1ccc(Cl)cc1,-11,1.64
COCCN(C)Cc1ccc(CC2CCN(C(=O)c3ccc(C)nc3O)CC2)cc1,-3,0.57
Cc1cc(Cl)cc2c1OCCC[C@@H]2NCc1cnc2n1CCCC2,-3,0.66
O=C(NCc1cc2n(n1)CCN(C1CCCCC1)C2)c1ccncc1,3,-0.52
c1ccc(-n2ncc(CN3CCCC4CCCCC43)n2)cc1 (stereo not given),1,-0.04
O=S(=O)(Cc1ccon1)N1CCN(Cc2nccn2C(F)F)CC1,-13,1.83
O=C(NCCc1cncnc1)N1CCOc2cccc(Br)c2C1,-3,0.66
CCN(CC)C(=O)Cn1c(=O)n(Cc2ccc(C(=O)NCCc3ccc(OC)c(OC)c3)cc2)c(=O)c2ccccc21,0,-0.05
CC(=O)N(CCc1noc(C2CCC2)n1)[C@H]1CCN(C(=O)c2ccnnc2)C1,-1,0.19
COc1ccccc1CNC1=NCCNC12CCN(S(=O)(=O)c1cc(C)ccc1C)CC2,-5,0.6
CC[C@H](Oc1ccccc1C)c1nnc(Cc2cn3ccccc3n2)o1,-8,1.28
CC(C)=CCC[C@@]1(C)CCC(=O)N(CCc2c[nH]cn2)C1,1,-0.13
CC(C)c1ccc(-c2nc(CNc3cc4c(cc3Cl)NC(=O)CO4)cs2)cc1,35,-4.78
CCN1CCN(CCNC(=O)c2ccc(NC(=O)c3nnc(COC)s3)cc2)CC1,0,0.04
Cc1ccccc1OC[C@@H](O)Cn1nc2c(cc1=O)CCC2,-4,0.6
CN(Cc1cccc(Cl)c1Cl)S(=O)(=O)[C@H]1CCOC1,-5,0.45
COc1ccc(F)c(-c2nc(C3CCC3)n[nH]2)c1,-2,0.29
